Screen size: about 2,100 compounds; about 1,100 (52%) were called active. So high a share suggests a set chosen from earlier hits. The inconclusive results got no clear call from the source; some entries with a clear call stand among them for comparison. Calls come from the whole dose curve; as a rule, active = well fitted inhibition curve with a large enough effect; inconclusive = small, poorly fitted or top-dose-only effect; inactive = no such curve, though single readings can be large or run the other way. Potencies of inconclusive entries are left out as doubtful fits.
Molecular target: DNA dC->dU-editing enzyme APOBEC-3F (Homo sapiens) (UniProt Q8IUX4)
Assay: qHTS for inhibitors of Vif-A3F interactions: Cherry picks counterscreen; note: nearly all actives have a fitted effect of over 65% in size
Conditions: HeLa A3F-eYFP/Vif cells, eYFP fluorescence, 24 h; series mostly up to 46.1 µM
Summary of the method: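 Rescue of Vif-driven A3F-eYFP degradation read as cellular eYFP fluorescence after 24 h compound exposure (several concentrations) in stable HeLa cells; MG132 (2 mM stock) as positive control.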
Potency is the fitted concentration of half-maximal effect; tags give direction and shape of the fitted curve.

Chain of UniProt Q8IUX4 (Q8IUX4 whole entry, looked up): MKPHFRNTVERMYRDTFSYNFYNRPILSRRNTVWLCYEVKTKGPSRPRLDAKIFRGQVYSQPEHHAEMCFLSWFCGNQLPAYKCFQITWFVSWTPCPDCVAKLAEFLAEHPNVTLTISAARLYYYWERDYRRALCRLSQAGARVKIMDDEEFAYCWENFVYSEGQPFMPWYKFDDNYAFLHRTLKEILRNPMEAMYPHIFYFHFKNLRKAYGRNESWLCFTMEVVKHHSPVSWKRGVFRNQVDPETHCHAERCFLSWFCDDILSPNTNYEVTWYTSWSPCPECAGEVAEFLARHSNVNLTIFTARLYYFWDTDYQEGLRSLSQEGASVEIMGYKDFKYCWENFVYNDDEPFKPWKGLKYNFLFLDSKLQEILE

Row | Structure (SMILES) | Potency
1 | O=C(O)CSc1cc(NS(=O)(=O)c2cccc([N+](=O)[O-])c2)c2ccccc2c1O | inactive
2 | Cc1ccc(NC(=O)c2ccc([N+](=O)[O-])s2)cc1S(=O)(=O)N1CCOCC1 | inactive
3 | O=C(C(=Cc1ccccc1)CN1CCCCC1)c1ccccc1 | inconclusive [inhibitor, full curve]
4 | COc1ccc2c(C)cc(SCC(=O)N(C)C3CCS(=O)(=O)C3)nc2c1 (stereo not drawn) | inactive
5 | CN1CCc2c(sc3c2C(=O)NC(c2ccc(-c4ccc(Cl)cc4)o2)N3)C1 (stereo not drawn) | inconclusive [inhibitor, partial curve, poor fit]
6 | Cc1c(N/N=C(\C#N)C(=O)c2ccc(Cl)cc2)c(=O)n(-c2ccccc2)n1C | inconclusive [inhibitor, partial curve, poor fit]
7 | COc1cc(/C=N/Nc2cc(C)nc(NS(=O)(=O)c3ccccc3)n2)ccc1O | inactive
8 | COc1ccc(N2C(=O)NC3CC2(C)Oc2ccccc23)cc1OC (stereo not drawn) | inconclusive [inhibitor, single point]
9 | CCOc1ccc(C(=O)C(CCC(CN(C)C)C(=O)c2ccc(OCC)cc2)CN(C)C)cc1 (stereo not drawn) | inconclusive [inhibitor, partial curve]
10 | Cc1c(N=N/C(C(=O)Nc2ccccc2)=C(/O)c2ccccc2)c(=O)n(-c2ccccc2)n1C | inconclusive [inhibitor, partial curve]
11 | COc1ccccc1NC(=O)C1=C(C)Nc2nc3ccccc3n2C1c1cccs1 (stereo not drawn) | active: 1.4 µM
12 | N#C/C(=C\c1ccc(N2CCOCC2)o1)c1ccccc1 | inconclusive [inhibitor, single point]
13 | CCOc1c(Cl)cc(/C=N/NC(N)=S)cc1OC | inconclusive [inhibitor, partial curve, poor fit]
14 | COc1ccc(-c2cc(NC=O)c3ncc(-c4ccc(C(C)=O)cc4)n3c2)cc1OC | inconclusive [inhibitor, single point]
15 | COc1cccc(Sc2ccccc2/C=N/NC(N)=O)c1 | inconclusive [inhibitor, full curve]
16 | COC(=O)c1c(-c2cccnc2)csc1NC(=O)c1ccc2c(c1)OCO2 | inactive
17 | COc1cc2c(cc1OC)C(C)N(C(=O)c1cc(Cl)nc(Cl)c1)CC2 (stereo not drawn) | inactive
18 | O=C(N/N=C/c1ccc(Cl)cc1)c1cc2c(s1)-c1ccccc1CC2 | active: 5.59 µM
19 | CCOc1ccc(Br)cc1/C(C)=N\NC1=NCCN1 | inconclusive [inhibitor, single point]
20 | CCC(=O)Nc1nc2ccc(NC(=O)c3cc(OC)c(OC)c(OC)c3)cc2s1 | inactive
21 | COc1cc(/C=C2\SC(N)=NC2=O)cc(Br)c1O | inconclusive [inhibitor, single point]
22 | COc1ccc2nc(SCC(=O)Nc3ccc4sc(C)nc4c3)c(C#N)cc2c1 | inconclusive [inhibitor, single point]

Row | Structure (SMILES) | Potency
23 | C=CCNC(=O)C(C#N)c1nc2ccccc2nc1N1CCN(Cc2ccccc2)CC1 (stereo not drawn) | inconclusive [inhibitor, partial curve, poor fit]
24 | O=C1C(=Cc2cccn2-c2ccccc2)C(=O)c2ccccc21 | inconclusive [inhibitor, single point]
25 | Cc1ccc(/C=N/NC(=O)c2nc3nc(C)cc(C)n3n2)cc1 | inactive
26 | CN(C)c1ccc(C2C=C(c3ccc(Cl)cc3OC(F)F)Nc3ncnn32)cc1 (stereo not drawn) | inconclusive [inhibitor, single point]
27 | CSc1nc(Sc2ccccc2Cl)c2ccccc2n1 | inconclusive [inhibitor, single point]
28 | COc1ccc(NCc2cc3cc4c(cc3n(CC(=O)Nc3cc(C)ccc3C)c2=O)OCCO4)cc1 | inconclusive [inhibitor, single point]
29 | CS(=O)(=O)Nc1ccc(C2=NN(S(C)(=O)=O)C(c3ccc4nccnc4c3)C2)cc1 (stereo not drawn) | inactive
30 | COc1ccc2[nH]c(C(=O)N/N=C/c3ccc(OC)c(O)c3)cc2c1 | active: 3.14 µM
31 | CCCOC(=O)/C(=C\c1ccc([N+](=O)[O-])o1)NC(=O)c1ccccc1 | inconclusive [inhibitor, single point]
32 | COc1ccc(-n2c(C)cc(/C=C3\SC(=S)NC3=O)c2C)cc1 | inconclusive [inhibitor, single point]
33 | Cc1ccc(-n2nc3c(SCCN4CCOCC4)nnc(C)c3c2C)cc1 | inconclusive [inhibitor, single point]
34 | Nc1c(N(CCC2=CCCCC2)C(=O)c2ccc([N+](=O)[O-])o2)c(=O)[nH]c(=O)n1Cc1ccccc1 | inconclusive [inhibitor, single point]
35 | COc1ccc2nc(Nc3nc(CSc4ccc(C)cc4)cc(=O)[nH]3)nc(C)c2c1 | inconclusive [inhibitor, single point]
36 | Cc1ccc(N2C(=O)CS/C2=C(\C(Cl)=C(Cl)Cl)[N+](=O)[O-])cc1 | inactive
37 | Cc1ccc2nc(/C(C#N)=C/c3ccc(O)c(O)c3)[nH]c2c1 | inconclusive [inhibitor, partial curve]
38 | COc1cc2c(cc1OC)C1=CC(=O)C(=O)N1C(C)(C)C2 | inconclusive [inhibitor, single point]
39 | CCOc1ccc(C(=O)COC(=O)Cc2n[nH]c(=O)c3ccccc23)cc1 | active: 4.44 µM
40 | COC(=O)c1[nH]c2c(c1C(=O)OC)CCc1ccccc1-2 | inconclusive [inhibitor, single point]
41 | COc1cc(/C=C/C(=O)c2ccc([N+](=O)[O-])o2)ccc1O | inconclusive [inhibitor, single point]
42 | O=C(Nc1ccc2c(c1)OCCO2)C(=O)c1c[nH]c2ccccc12 | inconclusive [inhibitor, partial curve]
43 | COc1ccc(-c2nc3c4ccccc4ccn3c2Cc2ccsc2)cc1OC | inactive

From PubChem BioAssay AID651815 (National Center for Advancing Translational Sciences (NCATS), 2012)
